The results in this text go back to patent US20220193124A1, “Therapeutic Agent for Flavivirus Infection” (NEOPHARMA JAPAN CO., LTD., priority 2019, published 2022).

The experiment concerns dengue virus type-2 New Guinea C strain (DENV2 NGC). Nature of the experiment: Inhibitory effect on dengue virus type-2 replication in Vero cells (progeny virus titer by plaque assay). As to conditions: for inhibitory effect on dengue virus replication (titer of progeny viruses): 5-ALA 1 mM, SFC 0.25 mM. Type of experiment: cell-based.

As for `NC(=O)c1ncn([C@@H]2O[C@H](CO)[C@@H](O)[C@H]2O)n1` [ribavirin, reference compound], under “ribavirin 300 μM, 7 days after infection, FIG. 6”, the “inhibitory effect on dengue virus replication under continuous treatment” value was “reduction in the inhibitory effect”.
For the molecule `COC1=CC(=O)C(=C(O)/C=C/c2ccccc2)C1=O` [lucidone, reference compound], the “inhibitory effect on dengue virus replication, lucidone compared with 5-ALA” value (lucidone 40 μM vs 5-ALA 0.2 mM, 7 days after infection, FIG. 16) is listed as “stronger inhibitory effect on the dengue virus replication than 0.2 mM 5-ALA”.
As for `Cl.NCC(=O)CCC(=O)O` [5-ALA, 5-aminolevulinic acid hydrochloride], the “inhibitory effect on dengue virus replication on Day 8” value (0.2 mM, continuous treatment, Day 8, FIG. 6) was “decreased”. The “inhibitory effect on dengue virus replication” value is, setting by setting: (0.2 mM, treatment for 2 days after infection (Day 2 to end of Day 4), FIG. 9) “exhibited”; (0.2 mM, treatment for 4 days after infection (Day 2 to end of Day 6), FIG. 8) “exhibited”; (0.2 mM, treatment for 7 days after infection (Day 2 to end of Day 8), FIG. 6) “exhibited the inhibitory effect on the dengue virus replication which increased up to Day 7”. For the same molecule, the “inhibitory effect on dengue virus replication, 5-ALA compared with low dose lucidone” value (5-ALA 0.2 mM vs lucidone 10 μM and 2.5 μM, 7 days after infection, FIG. 19) is “stronger inhibitory effect on the dengue virus replication than 10 μM and 2.5 μM of lucidone”. In addition, the “inhibitory effect on dengue virus replication compared with ribavirin” value (5-ALA 0.2 mM vs ribavirin 300 μM, 7 days after infection, FIG. 6) is “stronger than the effect of ribavirin (300 μM)”. Further, the “inhibitory effect on dengue virus replication, treatment for 4 days and 2 days compared with 7 days” value (FIG. 6, FIG. 8, FIG. 9) is reported as “less inhibitory effect”. Moreover, the “inhibitory effect on dengue virus replication when the agent was removed from the culture solution” value (after removal of the agent) is on record as “lost with the lapse of time”. In addition, the “dose-dependent inhibitory effect on dengue virus replication” value (treatment after infection for 1 day (Day 2), 0.05 mM to 1 mM, FIG. 4) is given as “exhibited the dose-dependent inhibitory effect”. Besides, the “inhibitory effect on dengue virus replication (titer of progeny viruses)” value by setting is: (treatment before infection, FIG. 1) “not observed”; (treatment concurrently with infection for 1 day (Day 1), FIG. 2) “exhibited the inhibitory effect”; (treatment from one day after infection for 1 day (Day 2), FIG. 3) “exhibited the inhibitory effect”.
